± gives the standard deviation of the averaged measurements. Some of the results follow.
Test system: PfAP2-LT AP2 domain (GST-tagged)
Assay: gcPBM binding intensity (ln(normalized median fluorescence intensity)); higher = stronger DNA binding
Summary of the method: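 Binding intensity is the highest Masliner-normalised natural-log median intensity over replicate spots in either probe orientation. To obtain it, GST-tagged P. falciparum DNA-binding domains made in E. coli were incubated for 1 h on an Agilent 4 × 180k array of primer-extended double-stranded 36-bp intergenic genomic probes plus negative controls. Detection used Alexa488 anti-GST antibody with scanning at 488 nm.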

Sequence | gcPBM binding intensity (ln)
ATATAATGGACCATAGTGCATAAAAATAACAAAAAA [GTGCAC_site9558] | 8.96 ± 0.6
TGGAAATATATATATATATATACATATATATATAGC [XGTACX_negctrl_site107] | 8.89 ± 0.34
TATTTTTTTTCTTTATTTATAACGCTCAATATATTC [GTGCAC_negctrl_site265] | 8.7 ± 0.51
TATGAAGAAAAGAATTGTACGATGTTTATTTTGTAT [XGTACX_site8614] | 8.76 ± 0.4
TGTTAATAGAAATACGTGCACACTAAAGGGAAAACA [CACACA_site1485] | 9.11 ± 0.47
TTGTTATCTACCTGTAGTACATATATTATGTAATAT [XGTACX_site735] | 8.84 ± 0.47
TAAATATATATATACACACACACCAAAGCAATAGAT [CACACA_site2940] | 9.79 ± 0.2
TTATATATACCTAAGACACACACATATATATATATA [CACACA_site8153] | 9.705 ± 0.035
ATTAAATATGTCAAGTGTACAAAATGTAAAAAAAAA [XGTACX_site4119] | 8.97 ± 0.59
GCCATTGTACCATCCACACACATATAAATATGTATA [CACACA_site7303] | 9.29 ± 0.39
TATATAACATATAACACACATACTTAGTATTACATA [CACACA_site3099] | 8.82 ± 0.38
ACAGTATCAATATGGATAAAAATGTCCATATGCCTG [TGCATGCA_negctrl_site482] | 8.83 ± 0.38
ACATGTGAACATTCAATGCACACGATGTAATTATAC [CACACA_site14] | 9.33 ± 0.34
ATGTGTTAAAAATGCACACAAAAAAATATACATATA [CACACA_site295] | 9.29 ± 0.37
ATATTATATATATACACACACACATGCATGCACCTA [CACACA_site106] | 9.95 ± 0.27
TTTTTTAAATATATGGTGCATAGAAAGATATTATAC [GTGCAC_site9984] | 8.41 ± 0.41
TTTAAAAAAAGCAGTACATGCAAAATAATAACAAGC [TGCATGCA_site392] | 9.2 ± 0.48
CAATTATATAATTGAAGTACTAGGAAAGATATATAT [XGTACX_site5459] | 8.85 ± 0.45
TAAAAAAATATTACATGTACATAAAATATATATATA [XGTACX_site4633] | 8.73 ± 0.47
CTTAAATTTTACTGAAGTACAAAATCGGTTCAATGA [XGTACX_site3292] | 8.4 ± 0.45
GGGAAAAAAAAAAGCACACATACGTAAATATATAAC [CACACA_site226] | 9.1 ± 0.49
TATACATATTTTTTTTGTACATATATAATATATATA [XGTACX_site2399] | 8.62 ± 0.39

Sequence | gcPBM binding intensity (ln)
AATTAAATTCGGTACTGTACATTTCAAAAATATACG [XGTACX_site48] | 8.65 ± 0.32
ATTCTACTTTTATTTATTTATTTGTTTATATATATA [XGTACX_negctrl_site609] | 8.99 ± 0.47
GAATGAATACGTTTTACACACTTGAATCTAATTTCA [CACACA_site6593] | 8.86 ± 0.47
TTTTTTATTCATGTAACACACATTTAATTATGAATT [CACACA_site2706] | 8.74 ± 0.4
ATAAATACATATGTGTGTACACATTATATATATATA [XGTACX_site1486] | 9.28 ± 0.37
GAAAAATTAAAACCTACACACACATTTAAAAAAAAA [CACACA_site9005] | 9.37 ± 0.39
ATATATATATAATCATCACACATGCAGCCCTGATGA [CACACA_site5500] | 9.04 ± 0.38
TATATATTACATACATGTACCCAAAAAAAAAAAAAA [XGTACX_site1168] | 8.57 ± 0.43
TATAAATATAAATATACACACATATATATATATATA [CACACA_site1678] | 9.38 ± 0.13
TTGCATTAATTTATGTGTACATATAAATTTTTATTT [XGTACX_site3060] | 8.84 ± 0.54
ATCAGTCGGCAGGACAGTACACAGTAGCCAGAAAAT [XGTACX_site2550] | 9.22 ± 0.52
CTTATAGGTCATTTCCTTGACCCCCTTTGTTGTACT [CACACA_negctrl_site551] | 8.77 ± 0.61
GTGTAGATATTGAAATGTACTCTCCATATAAAATAA [XGTACX_site4713] | 8.54 ± 0.39
AAAGAATTTGCATATACACACAAAAAAATATATACA [CACACA_site386] | 9.05 ± 0.48
ATATATATATATATATGTACTTATTTATTTATATTA [XGTACX_site4646] | 9.27 ± 0.71
TTACGATACTTTAGGTGTACACAAATATACATGAAT [XGTACX_site4322] | 8.97 ± 0.54
GCCCCCTAAAAAATTACACACGAAAAAAATGAATTT [CACACA_site9128] | 9.545 ± 0.0071
TTTTTTTTTTTTTTATGTACACATCTAAAAAAAAGG [XGTACX_site2067] | 8.23 ± 0.4
GGTCTAACAACATGCGCACACACATGAATATTCATA [CACACA_site1539] | 9.47 ± 0.19
TAAGTATAAAAAAATAGTACAATTATGAAATATCGT [XGTACX_site2529] | 8.79 ± 0.39
TTTAACAAGTTAAACACACATACATATATACATATA [CACACA_site2536] | 8.8 ± 0.29
AACAAAATTGAAGGAACACACATACATATTTATATA [CACACA_site6227] | 9.07 ± 0.41

Sequence | gcPBM binding intensity (ln)
AAAAAATTAGATTATGCACACACACTAATAAATAAT [CACACA_site8604] | 9.38 ± 0.32
CATATAAATACATGCACACAAAAATATCAATACATT [CACACA_site2392] | 9.3 ± 0.39
TTTATTTAAGAAAAATGTACAGGTTCATTTCATAAT [XGTACX_site27] | 8.41 ± 0.43
TTAAAAAAAAAACACACACACATACCCATATATATA [CACACA_site5768] | 9.825 ± 0.021
TATAAAAATATATATATATATATATATATAATATGT [TGCATGCA_negctrl_site85] | 9.06 ± 0.2
ATTTGTTCCTTGGGAGTTTACTTTTTTTTAATTTTA [CACACA_negctrl_site638] | 8.76 ± 0.47
TTCTTTTTAATTAATACACACACACCCATATATATA [CACACA_site8719] | 9.47 ± 0.27
AAAAAAAAAAAACACACACACACACTAGTATATAAA [CACACA_site4783] | 10.1 ± 0.2
AATACTTATTATGAAACACACACCAAAACTACATAA [CACACA_site270] | 9.46 ± 0.19
AAGAAAAAAAAAAATATATATACATATATATATATA [TGCATGCA_negctrl_site485] | 9.38 ± 0.47
AATACATATAATACAACACACAAGTAATATAAACCT [CACACA_site3597] | 9.34 ± 0.29
GGATATAACAAACACACACACACATATATATATATT [CACACA_site4141] | 9.97 ± 0.16
TTTAAATGAAAAAAAGGTACACAATATTATTCTTAT [XGTACX_site8612] | 8.55 ± 0.45
AATAAATAAATACATCTCAGTATATAAACAAACAAA [CACACA_negctrl_site1604] | 8.89 ± 0.51
ATGAAACATGTATATTGTACTCTGGATCAATTTAAT [XGTACX_site6413] | 8.85 ± 0.37
AAGCCTTAAAAGGAAAGTACGTATATATATATATAT [XGTACX_site8559] | 9.91 ± 0.53
ATATTTAATTAAAAGAGTACTTAAATAAAATAAATG [XGTACX_site2149] | 8.48 ± 0.45
AAATTTATTATATATACATGCAATCATAAATAATGT [TGCATGCA_site539] | 8.56 ± 0.42
AAGAAAATAGAAAATACACACAGCAAACAGAGGAAT [CACACA_site3785] | 9.6 ± 0.29
AATGTATATATATATATATATATATATATTTATTTA [CACACA_negctrl_site113] | 9.09 ± 0.46
ATATATATATATTTATGTACATATATTTTTTTTTTT [XGTACX_site8558] | 9.01 ± 0.38
AATAATAAATCAAACTGTACATATATTTTCAATCTA [XGTACX_site3344] | 8.6 ± 0.52

Sequence | gcPBM binding intensity (ln)
TGTAGTCTGGAGAAAAGTACACAGTATCCGGTAACT [XGTACX_site4934] | 8.86 ± 0.38
TTTTTTTTTTTGTTCACACATATATATATATATATA [CACACA_site5376] | 9.22 ± 0.23
TTATAAATAAAAAATACACACATATATTTATTTATA [CACACA_site6242] | 8.56 ± 0.5
ATAATATATGAAAGTGGTACACAAAGGAAAATAAAA [XGTACX_site333] | 9.04 ± 0.54
ATCCTAATATTGAACTGTACCTTATATGTTATTATA [XGTACX_site1014] | 8.87 ± 0.45
GGTTATATATTTTTTGCACACCAAAAAAGAGAATAT [CACACA_site2731] | 8.95 ± 0.42
ACGTGTATTTATTTAGTGCACTTTATATTTTTTCTT [GTGCAC_site9426] | 9.18 ± 0.48
TATATATATATATATACACACATATATACATATATA [CACACA_site4043] | 9.59 ± 0.26
TATACATACACATACACACATACACCCATACACATA [CACACA_site1746] | 9.69 ± 0.33
TTTATATTAATTGATGTGCACTGAAATATTTGTCCA [GTGCAC_site9655] | 8.62 ± 0.53
ACCCTATAGGTAACTACACACCGCATATTGTTTACT [CACACA_site7436] | 9.15 ± 0.34
TTAACTATGAATACATGTACATGAAAATATTTCAAT [XGTACX_site1069] | 8.8 ± 0.34
GGCAAATTTATTATACCCACATACATACATACATAC [XGTACX_negctrl_site186] | 9.01 ± 0.32
AAAATTAAACAAAGTTGTACAAAATAATAATAAAAG [XGTACX_site7515] | 9.06 ± 0.47
AAATTAATAAAAAATGGTACACAAAATGGATGTATA [XGTACX_site1561] | 8.79 ± 0.49
TATGTATATTATATGACACACATTTATATATATATA [CACACA_site1167] | 8.91 ± 0.32
TTTTGTTGATTTATATCTGTAGGGTTTAATATAACA [XGTACX_negctrl_site174] | 8.51 ± 0.33
AATAAATAAATAAATATATATATATATATATATATG [CACACA_negctrl_site899] | 9.02 ± 0.14
AAAAAGGATAAACACACACACACACCGATATATATA [CACACA_site8206] | 10.34 ± 0.099
TTATTTTTGTGTAAGGTGCTATATATAATGTTTTTA | 8.71 ± 0.41
AAATGTGATATAAGTACACACACATATGTATATATA [CACACA_site8539] | 9.49 ± 0.33
AACGAAATCATCAAGTGTACTAGTTTATTATTAATA [XGTACX_site6161] | 8.79 ± 0.5

Reference: the supplement of paper PMC11417369
